Common to all, as to assay: glycan array binding signal (z-score within array); higher = stronger binding
What all share (conditions): glycan notation: IUPAC condensed, linker removed

Experiment [1] concerns the target Neu5Ac(a2-8)Neu5Ac(a2-8)Neu5Ac(a2-8)Neu5Ac(a2-3)[GalNAc(b1-4)]Gal(b1-4)Glc. The method in brief: (§1)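 The binding signal is a Z-score computed within each array and averaged over linkers. Arrays of the same protein sequence at different concentrations or buffers were also averaged together. Data originate from 3228 arrays in the Consortium for Functional Glycomics database, kept only where the protein sequence was available.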

Experiment [2] addresses Neu5Ac9Ac(a2-6)Gal(b1-4)GlcNAc. The method in brief:
as §1

Experiment [3] deals with Neu5Gc(a2-3)Gal(b1-3)GlcNAc. The method in brief: as §1
Experiment [4] concerns the target Neu5Gc(a2-3)Gal(b1-3)[Fuc(a1-4)]GlcNAc. An outline of the steps:
as §1

The target in the next experiment is Neu5Gc(a2-3)Gal(b1-4)Glc. An outline of the steps: as §1
Experiment [5] has as its target Neu5Gc(a2-3)Gal(b1-4)GlcNAc. The method in brief: as §1
Experiment [6] concerns the target Neu5Gc(a2-3)Gal(b1-4)[Fuc(a1-4)]GlcNAc. An outline of the steps: as §1
In experiment [7] the target is Neu5Gc(a2-6)Gal(b1-4)GlcNAc. The method in brief: as §1
The target in a further experiment is Neu5Gc(a2-6)GalNAc. The method in brief:
as §1

This is one part of the list.

The source of these data is the supplement of paper PMC8728848.

B1: Alpha-agglutinin (Saccharomyces cerevisiae) (protein)
chain: MFTFLKIILWLFSLALASAININDITFSNLEITPLTANKQPDQGWTATFDFSIADASSIREGDEFTLSMPHVYRIKLLNSSQTATISLADGTEAFKCYVSQQAAYLYENTTFTCTAQNDLSSYNTIDGSITFSLNFSDGGSSYEYELENAKFFKSGPMLVKLGNQMSDVVNFDPAAFTENVFHSGRSTGYGSFESYHLGMYCPNGYFLGGTEKIDYDSSNNNVDLDCSSVQVYSSNDFNDWWFPQSYNDTNADVTCFGSNLWITLDEKLYDGEMLWVNALQSLPANVNTIDHALEFQYTCLDTIANTTYATQFSTTREFIVYQGR
As for B1, the “glycan array binding signal (z-score)” value is -0.128 in experiment [1]; -0.24 in [2]; -0.06 in [3]; -0.265 in experiment [4]; -0.268 with Neu5Gc(a2-3)Gal(b1-4)Glc; -0.256 in [5]. For the same molecule, the “glycan array binding signal (z-score)” value in experiment [6] was -0.266; in experiment [7], -0.269; with Neu5Gc(a2-6)GalNAc it was 0.016.
